According to PMC11110689:
Results are given in words; binding and its absence hold for the method and conditions named. Some binding calls cover weakened binding; strength is not graded here. For some assays here: Where a sequence is shown, tags or fusion partners need not be part of it.

Protein sequences, listed by entry. Tags and fused reporters are not part of them.
UniProt Q9NWT6: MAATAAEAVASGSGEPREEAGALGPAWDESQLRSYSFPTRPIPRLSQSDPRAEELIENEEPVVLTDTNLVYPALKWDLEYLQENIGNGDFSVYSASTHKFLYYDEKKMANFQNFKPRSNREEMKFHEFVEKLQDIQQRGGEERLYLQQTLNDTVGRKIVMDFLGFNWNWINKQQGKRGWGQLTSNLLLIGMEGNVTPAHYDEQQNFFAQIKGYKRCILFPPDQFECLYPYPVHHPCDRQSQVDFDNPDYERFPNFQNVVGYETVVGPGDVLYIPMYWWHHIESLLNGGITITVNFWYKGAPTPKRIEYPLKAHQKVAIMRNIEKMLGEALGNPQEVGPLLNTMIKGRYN

What was measured:
[1] = biological target: factor inhibiting HIF (FIH), V5-tagged (FIH-V5) (UniProt Q9NWT6); assay: immunoblot of a denaturation-resistant (SDS-PAGE) complex; HEK293 cells transiently co-transfected, normoxia; complex seen at the summed molecular weight; also with FG-4592 (0.1 mM), DM-NOFD (1 mM) or MG132 (10 μM), and with lysates treated with DTT or β-mercaptoethanol, 5 min at 95 °C; shows only complexes that resist denaturation
[2] = biological target: factor inhibiting HIF (FIH), V5-tagged (FIH-V5), Q9NWT6; assay: as above; settings: remark: other sources report otherwise

Binder | binding [1] | binding [2]
IκBβ ARD 1–3 (amino acids 1–166) (domain or fragment, UniProt Q15653 1-166) MAGVACLGKAADADEWCDSGLGSLGPDAAAPGGPGLGAELGPGLSWAPLVFGYVTEDGDTALHLAVIHQHEPFLDFLLGFSAGTEYMDLQNDLGQTALHLAAILGETSTVEKLYAAGAGLCVAERRGHTALHLACRVGAHACARALLQPRPRRPREAPDTYLAQGP | binds | –
IκBβ with deletion of aa 127–136 (protein, UniProt Q15653) MAGVACLGKAADADEWCDSGLGSLGPDAAAPGGPGLGAELGPGLSWAPLVFGYVTEDGDTALHLAVIHQHEPFLDFLLGFSAGTEYMDLQNDLGQTALHLAAILGETSTVEKLYAAGAGLCVAERRVGAHACARALLQPRPRRPREAPDTYLAQGPDRTPDTNHTPVALYPDSDLEKEEEESEEDWKLQLEAENYEGHTPLHVAVIHKDVEMVRLLRDAGADLDKPEPTCGRSPLHLAVEAQAADVLELLLRAGANPAARMYGGRTPLGSAMLRPNPILARLLRAHGAPEPEGEDEKSGPCSSSSDSDSGDEGDEYDDIVVHSSRSQTRLPPTPASKPLPDDPRPV | binds | –
IκBβ with deletion of aa 132–141 (protein, UniProt Q15653) MAGVACLGKAADADEWCDSGLGSLGPDAAAPGGPGLGAELGPGLSWAPLVFGYVTEDGDTALHLAVIHQHEPFLDFLLGFSAGTEYMDLQNDLGQTALHLAAILGETSTVEKLYAAGAGLCVAERRGHTALCARALLQPRPRRPREAPDTYLAQGPDRTPDTNHTPVALYPDSDLEKEEEESEEDWKLQLEAENYEGHTPLHVAVIHKDVEMVRLLRDAGADLDKPEPTCGRSPLHLAVEAQAADVLELLLRAGANPAARMYGGRTPLGSAMLRPNPILARLLRAHGAPEPEGEDEKSGPCSSSSDSDSGDEGDEYDDIVVHSSRSQTRLPPTPASKPLPDDPRPV | binds | –
IκBβ with deletion of aa 137–146 (protein, UniProt Q15653) MAGVACLGKAADADEWCDSGLGSLGPDAAAPGGPGLGAELGPGLSWAPLVFGYVTEDGDTALHLAVIHQHEPFLDFLLGFSAGTEYMDLQNDLGQTALHLAAILGETSTVEKLYAAGAGLCVAERRGHTALHLACRLQPRPRRPREAPDTYLAQGPDRTPDTNHTPVALYPDSDLEKEEEESEEDWKLQLEAENYEGHTPLHVAVIHKDVEMVRLLRDAGADLDKPEPTCGRSPLHLAVEAQAADVLELLLRAGANPAARMYGGRTPLGSAMLRPNPILARLLRAHGAPEPEGEDEKSGPCSSSSDSDSGDEGDEYDDIVVHSSRSQTRLPPTPASKPLPDDPRPV | binds | –
IκBβ-FLAG N266A (protein, UniProt Q15653 1-356) MAGVACLGKAADADEWCDSGLGSLGPDAAAPGGPGLGAELGPGLSWAPLVFGYVTEDGDTALHLAVIHQHEPFLDFLLGFSAGTEYMDLQNDLGQTALHLAAILGETSTVEKLYAAGAGLCVAERRGHTALHLACRVGAHACARALLQPRPRRPREAPDTYLAQGPDRTPDTNHTPVALYPDSDLEKEEEESEEDWKLQLEAENYEGHTPLHVAVIHKDVEMVRLLRDAGADLDKPEPTCGRSPLHLAVEAQAADVLELLLRAGAAPAARMYGGRTPLGSAMLRPNPILARLLRAHGAPEPEGEDEKSGPCSSSSDSDSGDEGDEYDDIVVHSSRSQTRLPPTPASKPLPDDPRPV | binds | –
IκBβ-FLAG D195A (protein, UniProt Q15653 1-356) MAGVACLGKAADADEWCDSGLGSLGPDAAAPGGPGLGAELGPGLSWAPLVFGYVTEDGDTALHLAVIHQHEPFLDFLLGFSAGTEYMDLQNDLGQTALHLAAILGETSTVEKLYAAGAGLCVAERRGHTALHLACRVGAHACARALLQPRPRRPREAPDTYLAQGPDRTPDTNHTPVALYPDSDLEKEEEESEEAWKLQLEAENYEGHTPLHVAVIHKDVEMVRLLRDAGADLDKPEPTCGRSPLHLAVEAQAADVLELLLRAGANPAARMYGGRTPLGSAMLRPNPILARLLRAHGAPEPEGEDEKSGPCSSSSDSDSGDEGDEYDDIVVHSSRSQTRLPPTPASKPLPDDPRPV | binds | –
IκBα, P25963 1-317 (protein) MFQAAERPQEWAMEGPRDGLKKERLLDDRHDSGLDSMKDEEYEQMVKELQEIRLEPQEVPRGSEPWKQQLTEDGDSFLHLAIIHEEKALTMEVIRQVKGDLAFLNFQNNLQQTPLHLAVITNQPEIAEALLGAGCDPELRDFRGNTPLHLACEQGCLASVGVLTQSCTTPHLHSILKATNYNGHTCLHLASIHGYLGIVELLVSLGADVNAQEPCNGRTALHLAVDLQNPDLVSLLLKCGADVNRVTYQGYSPYQLTWGRPSTRIQQQLGQLTLENLQMLPESEDEESYDTESEFTEFTEDELPYDDCVFGGQRLTL | – | no binding
IκBβ ARD 4–6 (amino acids 167–356) (domain or fragment, UniProt Q15653 167-356) DRTPDTNHTPVALYPDSDLEKEEEESEEDWKLQLEAENYEGHTPLHVAVIHKDVEMVRLLRDAGADLDKPEPTCGRSPLHLAVEAQAADVLELLLRAGANPAARMYGGRTPLGSAMLRPNPILARLLRAHGAPEPEGEDEKSGPCSSSSDSDSGDEGDEYDDIVVHSSRSQTRLPPTPASKPLPDDPRPV | no binding | –
truncated IκBβ fragment containing the N-terminal 126 aa (domain or fragment, UniProt Q15653 1-126) MAGVACLGKAADADEWCDSGLGSLGPDAAAPGGPGLGAELGPGLSWAPLVFGYVTEDGDTALHLAVIHQHEPFLDFLLGFSAGTEYMDLQNDLGQTALHLAAILGETSTVEKLYAAGAGLCVAERR | no binding | –
IκBβ with deletion of aa 117–126 (protein, UniProt Q15653) MAGVACLGKAADADEWCDSGLGSLGPDAAAPGGPGLGAELGPGLSWAPLVFGYVTEDGDTALHLAVIHQHEPFLDFLLGFSAGTEYMDLQNDLGQTALHLAAILGETSTVEKLYAAGHTALHLACRVGAHACARALLQPRPRRPREAPDTYLAQGPDRTPDTNHTPVALYPDSDLEKEEEESEEDWKLQLEAENYEGHTPLHVAVIHKDVEMVRLLRDAGADLDKPEPTCGRSPLHLAVEAQAADVLELLLRAGANPAARMYGGRTPLGSAMLRPNPILARLLRAHGAPEPEGEDEKSGPCSSSSDSDSGDEGDEYDDIVVHSSRSQTRLPPTPASKPLPDDPRPV | no binding | –
IκBβ with deletion of aa 122–131 (protein, UniProt Q15653) MAGVACLGKAADADEWCDSGLGSLGPDAAAPGGPGLGAELGPGLSWAPLVFGYVTEDGDTALHLAVIHQHEPFLDFLLGFSAGTEYMDLQNDLGQTALHLAAILGETSTVEKLYAAGAGLCHLACRVGAHACARALLQPRPRRPREAPDTYLAQGPDRTPDTNHTPVALYPDSDLEKEEEESEEDWKLQLEAENYEGHTPLHVAVIHKDVEMVRLLRDAGADLDKPEPTCGRSPLHLAVEAQAADVLELLLRAGANPAARMYGGRTPLGSAMLRPNPILARLLRAHGAPEPEGEDEKSGPCSSSSDSDSGDEGDEYDDIVVHSSRSQTRLPPTPASKPLPDDPRPV | no binding | –
Bcl-3 (protein, UniProt P20749 1-454) MPRCPAGAMDEGPVDLRTRPKAAGLPGAALPLRKRPLRAPSPEPAAPRGAAGLVVPLDPLRGGCDLPAVPGPPHGLARPEALYYPGALLPLYPTRAMGSPFPLVNLPTPLYPMMCPMEHPLSADIAMATRADEDGDTPLHIAVVQGNLPAVHRLVNLFQQGGRELDIYNNLRQTPLHLAVITTLPSVVRLLVTAGASPMALDRHGQTAAHLACEHRSPTCLRALLDSAAPGTLDLEARNYDGLTALHVAVNTECQETVQLLLERGADIDAVDIKSGRSPLIHAVENNSLSMVQLLLQHGANVNAQMYSGSSALHSASGRGLLPLVRTLVRSGADSSLKNCHNDTPLMVARSRRVIDILRGKATRPASTSQPDPSPDRSANTSPESSSRLSSNGLLSASPSSSPSQSPPRDPPGFPMAPPNFFLPSPSPPAFLPFAGVLRGPGRPVPPSPAPGGS | no binding | –
IκBε (protein, UniProt O00221 1-500) MNQRRSESRPGNHRLQAYAEPGKGDSGGAGPLSGSARRGRGGGGAIRVRRPCWSGGAGRGGGPAWAVRLPTVTAGWTWPALRTLSSLRAGPSEPHSPGRRPPRAGRPLCQADPQPGKAARRSLEPDPAQTGPRPARAAGMSEARKGPDEAEESQYDSGIESLRSLRSLPESTSAPASGPSDGSPQPCTHPPGPVKEPQEKEDADGERADSTYGSSSLTYTLSLLGGPEAEDPAPRLPLPHVGALSPQQLEALTYISEDGDTLVHLAVIHEAPAVLLCCLALLPQEVLDIQNNLYQTALHLAVHLDQPGAVRALVLKGASRALQDRHGDTALHVACQRQHLACARCLLEGRPEPGRGTSHSLDLQLQNWQGLACLHIATLQKNQPLMELLLRNGADIDVQEGTSGKTALHLAVETQERGLVQFLLQAGAQVDARMLNGCTPLHLAAGRGLMGISSTLCKAGADSLLRNVEDETPQDLTEESLVLLPFDDLKISGKLLLCTD | no binding | –
p100 (protein, UniProt Q00653-1 1-900) MESCYNPGLDGIIEYDDFKLNSSIVEPKEPAPETADGPYLVIVEQPKQRGFRFRYGCEGPSHGGLPGASSEKGRKTYPTVKICNYEGPAKIEVDLVTHSDPPRAHAHSLVGKQCSELGICAVSVGPKDMTAQFNNLGVLHVTKKNMMGTMIQKLQRQRLRSRPQGLTEAEQRELEQEAKELKKVMDLSIVRLRFSAFLRASDGSFSLPLKPVISQPIHDSKSPGASNLKISRMDKTAGSVRGGDEVYLLCDKVQKDDIEVRFYEDDENGWQAFGDFSPTDVHKQYAIVFRTPPYHKMKIERPVTVFLQLKRKRGGDVSDSKQFTYYPLVEDKEEVQRKRRKALPTFSQPFGGGSHMGGGSGGAAGGYGGAGGGGSLGFFPSSLAYSPYQSGAGPMGCYPGGGGGAQMAATVPSRDSGEEAAEPSAPSRTPQCEPQAPEMLQRAREYNARLFGLAQRSARALLDYGVTADARALLAGQRHLLTAQDENGDTPLHLAIIHGQTSVIEQIVYVIHHAQDLGVVNLTNHLHQTPLHLAVITGQTSVVSFLLRVGADPALLDRHGDSAMHLALRAGAGAPELLRALLQSGAPAVPQLLHMPDFEGLYPVHLAVRARSPECLDLLVDSGAEVEATERQGGRTALHLATEMEELGLVTHLVTKLRANVNARTFAGNTPLHLAAGLGYPTLTRLLLKAGADIHAENEEPLCPLPSPPTSDSDSDSEGPEKDTRSSFRGHTPLDLTCSTKVKTLLLNAAQNTMEPPLTPPSPAGPGLSLGDTALQNLEQLLDGPEAQGSWAELAERLGLRSLVDTYRQTTSPSGSLLRSYELAGGDLAGLLEALSDMGLEEGVRLLRGPETRDKLPSTAEVKEDSAYGSQSVEQEAEKLGPPPEPPGGLCHGHPQPQVH | no binding | –
